In PMC6919601, “Identification of Plasmodium dipeptidyl aminopeptidase allosteric inhibitors by high throughput screening” (PLoS ONE, 2019):
“And” between values parts separate entries of the source, which are not always exact repeats. Identical values can stand only once. Hit rate of the full screen: of about 110,000 compounds, about 230 (0.21%) showed an effect of 50% or more. The list shows a part of the results.

Molecular target: DPAP1 (Plasmodium falciparum, UniProt Q8IIJ9)
Experiment: primary screen, percent inhibition; read by cleavage of a fluorogenic dipeptide substrate; higher = more effect of the substance
Parameters: species or system P. falciparum D10 trophozoite lysates; single well
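Also: 30 min substrate incubation versus DMSO and 10 µM JCP410 controls.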

Chain of DPAP1 (Q8IIJ9 whole entry, looked up): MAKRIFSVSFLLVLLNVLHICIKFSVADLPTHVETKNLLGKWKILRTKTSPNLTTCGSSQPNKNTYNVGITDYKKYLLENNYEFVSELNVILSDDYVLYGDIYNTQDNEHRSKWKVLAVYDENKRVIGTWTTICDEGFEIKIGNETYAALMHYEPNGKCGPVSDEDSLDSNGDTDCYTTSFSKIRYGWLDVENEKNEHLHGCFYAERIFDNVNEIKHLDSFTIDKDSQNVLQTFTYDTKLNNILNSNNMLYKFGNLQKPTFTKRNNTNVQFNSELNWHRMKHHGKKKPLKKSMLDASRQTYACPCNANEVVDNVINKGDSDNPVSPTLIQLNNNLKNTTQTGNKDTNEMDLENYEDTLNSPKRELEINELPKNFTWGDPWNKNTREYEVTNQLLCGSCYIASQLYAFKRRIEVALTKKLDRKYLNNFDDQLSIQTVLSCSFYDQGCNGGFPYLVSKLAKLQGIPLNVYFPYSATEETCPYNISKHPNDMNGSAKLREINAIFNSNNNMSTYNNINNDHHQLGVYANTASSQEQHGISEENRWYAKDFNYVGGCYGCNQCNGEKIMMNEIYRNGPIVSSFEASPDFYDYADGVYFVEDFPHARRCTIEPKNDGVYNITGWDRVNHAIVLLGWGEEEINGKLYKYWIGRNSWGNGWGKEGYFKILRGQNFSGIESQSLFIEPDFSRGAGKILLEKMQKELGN

SMILES	% Inhibition @ 10 uM
Cc1nsc2c1ccc1sccc12	3.36%
NS(=O)(=O)c1ccc(NC(=O)/C(=C/c2ccc([N+](=O)[O-])cc2)NC(=O)c2ccccc2)cc1	5.04%
COc1ccccc1OCc1ccc(C(=O)N2CC(C)OC(C)C2)cc1 (centres unmarked)	-1.93%
O=C(Nc1ccc(Cl)c(Cl)c1)[C@@H]1C[C@@H]1c1ccccc1	-3.13%
COc1ccc(-c2noc(CSc3nnc(-c4ccncc4)n3-c3ccc(F)cc3)n2)cc1	6.01%
Cc1ccccc1OCC(=O)N(Cc1sccc1C)C1CCS(=O)(=O)C1 (centres unmarked)	0.569%
CC(C)C[C@H](NC(=O)c1cc(-c2ccccc2Cl)c(Cl)s1)C(=O)NCC#N	-3.48%
COc1ccc(N(Cc2ccc(Br)cc2)C(=O)c2ccc([N+](=O)[O-])cc2)cc1	3.42%
O=C(Nc1ccc(Cl)cc1)C(O)(c1ccccc1)c1ccccc1	6.09%
CCOC(=O)N1CCC(n2c(SCC(=O)Nc3nccs3)nc3ccsc3c2=O)CC1	3.05%
CCN(CC)CCCNC(=O)CSc1nc2nc(C)c(Cc3ccc(C)cc3)c(C)n2n1	-10.7%
O=C1NC(=O)/C(=C\c2ccc(N3CCOCC3)o2)N1	-7.23%
COc1ccc(C2CC(=O)C(/C=N/CCN3CCN(C(=O)c4ccccc4)CC3)=C(O)C2)cc1 (centres unmarked)	-3.14%
CN1C(=O)NC(=O)/C(=C/c2cc(Br)cc(Cl)c2O)C1=O	-0.274%
Cc1ccc(CCSc2ccc(F)cc2)cn1	-1.45% and 3.12%
Cc1cccc(NC(=O)c2cc3ccccc3cc2O)c1C	2.34%
Cc1cccc(NC(=O)CSc2nc(O)c(C#N)c(-c3ccccc3)n2)c1C	1.4%
O=C(CCc1nc2cccnc2n1Cc1cccs1)NCc1ccccc1Cl	-1.7%
CCc1ccc(NC(=O)CC2(c3ccccc3)C(=O)c3ccccc3C2=O)cc1	-3.81%
O=C(c1cccnc1N1CCN(CCO)CC1)N1CCOCC1	-6.36%
O=C(c1ccc(Br)o1)N1CCc2ccccc21	1.84%

SMILES	% Inhibition @ 10 uM
CCc1nnc(NC(=O)CSC2=NC(=O)C(c3ccccc3)C(=O)N2)s1 (centres unmarked)	1.26%
Cc1cc(NC(=O)c2ccc(C(=O)Nc3cc(C)on3)nc2)no1	-6.25%
O=C(CNC(=O)OCc1ccccc1)NCCc1nc2ccccc2[nH]1	-0.0735%
COc1ccc(C(=O)NC2CCCCCCC2)cc1OC	-0.999%
O=C1/C(=C/c2ccc3nccnc3c2)Cc2ccccc21	-2.95%
COc1ccc(C(=O)NC(c2ccccc2)c2ccccc2)cc1OC	0.431%
Cc1ccc(NC(=O)CN2CCOCC2)cc1Br	5.97%
COc1ccccc1C1C(C#N)=C(N)N(c2cccnc2)C2=C1C(=O)CC(C)(C)C2 (centres unmarked)	2.01%
CCOc1ccc(/C=C(\C#N)C(N)=O)cc1	-5.73%
Cc1ccc2c(c1)C1CCCC3C1N2CC(=O)N3Cc1ccccc1 (centres unmarked)	0.345%
CN(C)c1ccc2c(c1)OC(N)=C(C#N)C2c1cccc(F)c1 (centres unmarked)	-4.3%
COc1ccc2cc(Br)ccc2c1CC(=O)Nc1nccs1	-1.37%
Cc1ccc(C)c(OCc2ccc(C(=O)N3N=C(C(F)F)CC3(O)C(F)F)o2)c1 (centres unmarked)	-0.116%
CCCN1CCN(C(=O)c2ccc3c(c2)sc2nc(-c4ccc(OC)cc4)cn23)CC1	15.3%
Cc1ccc(Cn2c(=O)n(CCC(=O)NCc3ccc4c(c3)OCO4)c(=O)c3sccc32)cc1	-1.21%
O=C1CS/C(=N/c2ccc(Br)cc2)N1Cc1ccccc1	0.24%
Cc1cc(OCC(=O)Nc2cccc(-c3nc4ncccc4o3)c2)ccc1Cl	0.214%
O=C(COc1ccccc1)N1CCN(C(=O)c2ccccc2F)CC1	-0.999%
O=C(OCC1OC(O)C(O)C(O)C1O)C1CCCN1C(=O)OCc1ccccc1 (centres unmarked)	0.00784%
CN(CCN1CCOCC1)C1CCN(C(=O)CNC(=O)/C=C/c2cccs2)CC1	0.689%
N=C1S/C(=C\c2ccc(N3CCOCC3)cc2)C(=O)N1c1ccc(Br)cc1	0.605%

SMILES	% Inhibition @ 10 uM
N=c1c(C(=O)NCCc2ccccc2)cc2c(=O)n3ccccc3nc2n1CC1CCCO1 (centres unmarked)	-3.27%
COc1ccc(C(=O)Nc2nc(-c3ccc(F)cc3)cs2)cc1OC	6.35%
CC(NC(=O)c1ccccc1NS(=O)(=O)c1ccc2c(c1)OCCO2)c1ccccc1 (centres unmarked)	-1.02%
CCC(C)NC(=O)CC(c1ccccc1)c1cc(Cl)ccc1O (centres unmarked)	-4.12%
CSc1ncc(C(=O)NCc2cccc(Br)c2)c(C)n1	5.86%
CC1=C(C(=O)Nc2ccc(Br)cc2)C(c2cccs2)NC(S)=N1 (centres unmarked)	-9.49%
Cc1ccc(C(=O)N/C(=C/c2ccccc2)C(=O)NC(CC(C)C)C(=O)O)cc1 (centres unmarked)	3.54%
CCCC1=C(C(=O)OCC)C(c2ccccc2F)NC(=O)N1 (centres unmarked)	-0.267%
OC1(c2ccc(Br)cc2)CCN(Cc2ccc(F)cc2)CC1	-0.292%
COc1cccc(C2C(C#N)=C(N)Oc3[nH]nc(-c4ccccc4)c32)c1 (centres unmarked)	-2.56%
Cc1ccc(-c2[nH]nc3c2C(c2ccccc2)NC3=O)cc1 (centres unmarked)	-1.54%
O=C(Nc1ccc(N2CCOCC2)c2nonc12)C1CCCC1	-1.07%
Cc1ccc(C(=O)NCc2cc(-c3nn(C)c(=O)c4ccccc34)ccc2C)cc1	-1.17%
CCCN(CCC)c1ncnc2c1cnn2-c1ccc(OC)cc1	-2.84%
CCC(=O)Nc1ccc2nc(SCC(=O)N3CCCC3)sc2c1	1.82%
Cn1cc(/C=C2\NC(=O)N(Cc3ccc(Cl)cc3)C2=O)c2ccccc21	3.8%
O=C(O)C1NCCc2ccccc21 (centres unmarked)	2.65%
Cc1ccc2c(c1)[C@@H]1CN(C)CC[C@@H]1N2C(=O)CCCCCN1C(=O)c2ccccc2C1=O	5.48%
CCOc1ccc(NC(=O)COc2ccc(C(=O)NC3CCCCC3)cc2)cc1	0.709%
COc1ccc(O)c(-c2cc(-c3ccc(C)cc3)[nH]n2)c1	2.17%
